Reference: PubChem BioAssay AID686979 (National Center for Advancing Translational Sciences (NCATS), 2013)
Values joined by “and” are separate entries in the source; they are usually repeats but may differ in a detail not shown here. Equal values may be shown once. Among all 420,000 compounds or so, about 50,000 (12%) were called active. This list was built around the results that the source calls inconclusive (neither active nor inactive); the mix of calls is not that of the screen. Calls follow the shape of the dose curve; as a rule, active = well fitted inhibition curve with a large enough effect; inconclusive = small, poorly fitted or top-dose-only effect; inactive = flat fitted curve, though single readings scatter. A potency beside an inconclusive call is a rough fit, not a confirmed value.

Assay: qHTS for Inhibitors of human tyrosyl-DNA phosphodiesterase 1 (TDP1): qHTS in cells in presence of CPT; also: nearly all actives have a fitted effect of over 55% in size
Settings: chicken DT40 Tdp1-/-;hTDP1 cells + 20 nM CPT, ATP luminescence, 48 h; activity change, negative = growth inhibition: at 46.2 µM (top of the series) unless noted
Summary of the method: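 Chicken DT40 Tdp1-/- cells stably complemented with human TDP1 were seeded at 400 cells/well in medium containing 20 nM camptothecin, exposed to pin-transferred compounds, and grown at 37 °C for at least 48 hr. Viability was read as ATP luminescence.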
% is scaled to controls: 0 for no effect and ±100 for the full control effect; potency is read from the fitted curve at half-maximal effect; tags tell the direction and shape of the fitted curve.

Structure (SMILES) | Potency | activity change, negative = growth inhibition
CCCCN1C(=O)NC(c2cccc([N+](=O)[O-])c2)C(C(=O)OCC)=C1C (stereo not drawn) | inconclusive: 29.1 µM [inhibitor, single point] | –
O=C(O[C@@H]1OC2COC(=O)c3cc(O)c(O)c(O)c3-c3c(cc(O)c(O)c3O)C(=O)O[C@@H]([C@H]1O)[C@@H]2O)c1cc(O)c(O)c(O)c1 | inconclusive: 16.4 µM [inhibitor, single point] | –
COc1ccc(NC(=O)c2cccnc2N2CCOCC2)cc1 | inactive | –
COc1cccc(N2CCN(C(=O)CCNS(=O)(=O)c3ccc(F)c(F)c3)CC2)c1 | inconclusive: 29.1 µM [inhibitor, single point] | –
Cc1cnc(CNc2ncncc2-c2cccc(NS(C)(=O)=O)c2)cn1 | inactive | –
CCOc1ccc(CCNC(=O)c2ccc(CNS(=O)(=O)c3ccccc3)cc2)cc1OCC | inconclusive: 29.1 µM [inhibitor, single point] | –
CSc1ncc(Cl)c(C(=O)N(Cc2ccc(C)cc2)C2CCS(=O)(=O)C2)n1 (stereo not drawn) | inconclusive: 14.6 µM [inhibitor, partial curve] | –
COc1ccccc1C1C=C(c2ccc(C(C)C)cc2)Nc2nnnn21 (stereo not drawn) | inconclusive: 29.1 µM [inhibitor, single point] | –
Cc1cccc(CNC(=O)c2ccc3c(c2)c(C)c(C)n3Cc2ccccc2)c1 | active: 20.6 µM | –
Fc1ccc(-n2ncc3c(Nc4cccc(Cl)c4)ncnc32)cc1 | inconclusive: 29.1 µM [inhibitor, single point] | –
CC1CN(C(=O)c2ccccc2Oc2ccccc2)CC(C)O1 (stereo not drawn) | inactive | –
CCOC(=O)c1ccc(S(=O)(=O)NCCNCc2ccccc2)cc1 | inconclusive: 29.1 µM [inhibitor, single point] | –
COc1ccccc1NC(=O)Cn1c(=O)c(CNc2ccccc2)cc2cc(OC)c(OC)cc21 | active: 5.17 µM | –
COC(=O)c1ccccc1-c1cc(C)cc2c1OC(CNC(=O)c1occc1C)C2 (stereo not drawn) | active: 16.4 µM | –
COc1cc(C2(c3ccc(O)c(OC)c3)C(=O)Nc3c(Br)cc(Br)cc32)ccc1O | inactive | –
CCCCOc1ccc(C(=O)N(Cc2ccco2)C2CCS(=O)(=O)C2)cc1 (stereo not drawn) | inconclusive: 29.1 µM [inhibitor, single point] | –
CC(C)Cc1ccc(CN2C(C(C)C)C(=O)N(Cc3cn(CCC4OCCO4)nn3)CCS2(=O)=O)cc1 (stereo not drawn) | inconclusive: 29.1 µM [inhibitor, single point] | –
CC1=CCC(Cc2nc3ccccc3o2)C1(C)C (stereo not drawn) | inconclusive: 6.51 µM [inhibitor, partial curve] | –
O=C1CCc2cc(S(=O)(=O)NCc3ccccc3Cl)cc3c2N1CC3 | inactive and inconclusive: 20.6 µM [inhibitor, partial curve] | –
CCN(CC)S(=O)(=O)c1ccc(C(=O)Nc2nc3ccc(Cl)cc3s2)cc1 | inconclusive: 4.61 µM [inhibitor, single point] | –
CN(C(=S)NC(=O)Cc1ccccc1)c1ccccc1 | inconclusive: 29.1 µM [inhibitor, single point] | –
COc1ccc(C(=O)COC(=O)CN2CC(=O)Oc3ccccc32)cc1Br | inconclusive: 29.1 µM [inhibitor, single point] | –
CCOC(=O)c1ccc(NC(=O)NC2CC3CCC(C2)N3Cc2nnnn2Cc2ccco2)cc1 (stereo not drawn) | inconclusive: 25.9 µM [inhibitor, single point] | –

Structure (SMILES) | Potency | activity change, negative = growth inhibition
CC1(C(=O)NS(=O)(=O)c2cccc(F)c2)CCN1C(=O)Cc1ccc(-c2ccccc2)cc1 (stereo not drawn) | inactive | –
COc1ccc2c(c1)Sc1ccccc1N2 | inconclusive: 25.9 µM [inhibitor, single point] | –
NS(=O)(=O)c1ccc(CCNC(=O)c2cc(-c3cc(Cl)ccc3O)n[nH]2)cc1 | inconclusive: 29.1 µM [inhibitor, single point] | –
CCCN1CNc2c(c(=O)[nH]c(=S)n2CCc2ccc(OC)c(OC)c2)C1 | inactive | –
COc1cc(OC)cc(-c2nc3nc(C)c(CCC(=O)Nc4ccc(C)cc4C)c(C)n3n2)c1 | inactive | –
COc1ccc(-c2nsc3c(N4CCN(S(=O)(=O)c5ccccc5F)CC4)ncnc23)cc1 | inactive | –
C=CCN(C)CCCCCCOc1ccc(C(=O)c2ccc(Br)cc2)c(F)c1 | active: 5.01 µM | –
CCOc1ccccc1CNC(=O)c1ccccc1NC(=O)C1=CSCCO1 | inconclusive: 18.4 µM [inhibitor, single point] | –
COc1cc(C(=O)N2CCN(c3ncnc4sc(C)c(C)c34)CC2)cc(OC)c1OC | inconclusive: 23.1 µM [inhibitor, partial curve, poor fit] | –
C#CCNC(=O)C1=C[C@@H](C(C)(C)C)C[C@@H](OCc2ccc(CO)cc2)O1 | inconclusive: 29.1 µM [inhibitor, single point] | –
CC1(Cc2ccc(Cl)cc2)C(=O)Nc2ccc(-c3cccnc3)cc21 (stereo not drawn) | active: 13 µM | –
CCOC(=O)N1CCN(Cc2nc3cc(NC(=O)c4cccc(C)c4)ccc3n2C(C)C)CC1 | active: 0.92 µM | –
c1cncc(-c2nc(-c3ccco3)cs2)c1 | inconclusive: 25.9 µM [inhibitor, single point] | –
CN(C)CCNc1nc2sc3c(c2c(=O)n1-c1ccc(F)cc1)CCCCC3 | active: 20.6 µM | –
CCCCN(CCCC)c1nc2ccccc2nc1C(C#N)C(=O)NCCCOC (stereo not drawn) | – | inconclusive: -30.6% [inhibitor]
COc1ccccc1-c1csc(C(O)(c2ccccc2)C(F)(F)F)n1 (stereo not drawn) | inconclusive: 20.6 µM [inhibitor, single point] | –
Cc1ccc2nc(N(CCN3CCOCC3)C(=O)CCS(=O)(=O)c3ccccc3)sc2c1 | active: 11.6 µM | –
Cn1ccnc1SCC(=O)Nc1nc2c(F)c(F)c(F)cc2s1 | inconclusive: 5.17 µM [inhibitor, full curve] | –
CCc1cccc(CC)c1NC(=S)NCc1ccc2c(c1)OCO2 | active: 23.1 µM | –
COc1ccc(NC(=O)NNC(=O)C(C)Oc2ccc3ccccc3c2)cc1OC (stereo not drawn) | inactive | –
Cn1cc(-c2nnnn2-c2ccc(Cl)cc2)c(C(F)(F)F)n1 | inconclusive: 9.2 µM [inhibitor, partial curve] | –
CC(=O)N1CCOc2ccc(S(=O)(=O)N3CCN(c4cccc(C(F)(F)F)c4)CC3)cc21 | inconclusive: 20.6 µM [inhibitor, partial curve] | –
CCCSCCCNC(=O)Cn1c(=O)c2cccn2c2ccccc21 | inactive | –

Structure (SMILES) | Potency | activity change, negative = growth inhibition
Cc1cc(C)c2c(N)c(C(=O)Nc3ccc(C)c(C)c3)sc2n1 | inactive | –
CCc1ccc(C(=O)C(C)OC(=O)Cc2n[nH]c(=O)c3ccccc23)cc1 (stereo not drawn) | active: 6.51 µM | –
S=c1[nH]nc(-c2cc(-c3ccccc3)n[nH]2)n1/N=C/C(Br)=C/c1ccccc1 | active: 2.91 µM | –
CN1CCN(c2cc(-c3cccc(C(=O)O)c3)nc3ccnn23)CC1 | inactive | –
Cc1ccccc1C(=O)Nc1cccc(OCc2cc(=O)n3cccc(C)c3n2)c1 | inconclusive: 23.1 µM [inhibitor, single point] | –
Cc1cc(C)nc(Sc2nc(Cl)nc(N(c3ccccc3)c3ccccc3)n2)n1 | inconclusive: 25.9 µM [inhibitor, single point] | –
CC1CCCN(CCCNC(=O)c2ccc3c(c2)N(Cc2ccc(Cl)cc2)C(=O)c2ccccc2S3(=O)=O)C1 (stereo not drawn) | inconclusive: 29.1 µM [inhibitor, single point] | –
CC(=O)c1c(C)[nH]c(C(=O)OCC(=O)Nc2ccc(Cl)c(S(=O)(=O)N(C)C)c2)c1C | active: 7.31 µM | –
CCCN1CNC(=S)N(c2ccccc2C)C1 | inactive | –
CCc1ccc([C@@H]2CC(=O)[C@@H]3CN(S(=O)(=O)c4ccc(C)cc4)[C@H](c4ccc(Cl)cc4)C[C@@H]3N2S(=O)(=O)c2ccc(C)cc2)cc1 | inactive | –
CN(CC(=O)Nc1ccccc1Cl)CC(=O)N1CCc2ccccc21 | inconclusive: 29.1 µM [inhibitor, single point] | –
COC(=O)C1=CN(Cc2ccc(C)cc2)C=C(C(=O)OC)C1c1ccc(F)c(F)c1 | inconclusive: 29.1 µM [inhibitor, single point] | –
CCOC(=O)c1cc([N+](=O)[O-])c([N+](=O)[O-])cc1NC(C)=O | inconclusive: 0.82 µM [inhibitor, full curve, poor fit] | –
CCC1C(=O)NCCN1Cc1ccc2c(c1)CN(Cc1ccc3c(c1)OCCO3)CCO2 (stereo not drawn) | inconclusive: 0.0033 µM [inhibitor, full curve, poor fit] | –
COCC(C)NC(=S)Nc1ccccc1[N+](=O)[O-] (stereo not drawn) | inactive | –
CCOC(=O)C1CCN(C(c2ccccn2)c2c(C)[nH]c3ccccc23)CC1 (stereo not drawn) | active: 16.4 µM | –
Cc1ccc(C)c(C(=O)COc2ccccc2[N+](=O)[O-])c1 | active: 5.17 µM | –
CCOC(=O)c1c(NC(=O)C2COc3ccccc3O2)sc(C(C)=O)c1C (stereo not drawn) | active: 7.31 µM | –
O=C(c1cnc(N2CCN(c3ncccn3)CC2)c2ccccc12)N1CCN(c2ccccn2)CC1 | inconclusive: 29.1 µM [inhibitor, single point] | –
CCOC(=O)C1CCCN(C(=O)c2cccc(S(=O)(=O)N(C)c3ccc(OC)cc3)c2)C1 (stereo not drawn) | inconclusive: 23.1 µM [inhibitor, single point] | –
COc1ccccc1-c1cccc(-c2nc(C(=O)Nc3nccs3)cc3c2[C@@H](CCO)N(C(=O)CC2CC2)C3)c1 | active: 18.4 µM | –
CCN(CC)S(=O)(=O)c1cccc(NC(=O)CCNC(=O)c2ccccc2Cl)c1 | inconclusive: 32.6 µM [inhibitor, single point] | –
